# Experimental data taken from PubChem BioAssay (NCI).
#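 Interpolation was linear, between the two tested concentrations surrounding the appropriate level; five concentrations were tested over 48 hours in 96-well plates. The concentration for 50% growth inhibition is given as GI50. TGI marks complete inhibition of growth.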
# System: NCI-H322M lung
# Experiment: inhibition of tumour cell growth, NCI panel, 48 h
Structure (SMILES),TGI [µM],GI50 [µM]
CSCC[C@H]1C(=O)N=C(N)N1C(=O)OCc1ccccc1,> 100,–
OC(c1ccccc1)(c1ccccc1)c1cccnc1,> 100,–
CSc1c(C(=O)Nc2ccc(Cl)cc2)c(N)[nH]c(=O)c1C#N,> 92.8,–
Cc1ccc(-c2n[nH]c(=O)[nH]2)cc1,> 100,–
Nc1ccc(S(=O)(=O)c2ccc(NC(=O)c3cccnc3)cc2)cc1,> 100,–
Oc1cc(Cl)ccc1Oc1ccc(Cl)cc1Cl,22,9.22
C=C(N=[N+]=[N-])c1cn(C2CC(O)C(CO)O2)c(=O)[nH]c1=O (stereo not drawn),> 100,–
O=C(Nc1ccc2c(c1)oc(=O)c1ccccc12)C(Cl)Cl,47.9,–
CC(C)=CC(=O)CC(=O)C(=O)Nc1ccc(Cl)c(Cl)c1,> 100,–
CCSc1nc(COC(=O)NC)c(COC(=O)NC)n1C,> 100,–
COc1ccc(C2NC3=C(CCCC3)C3(C#N)C(=O)N=C(N)C23C#N)cc1 (stereo not drawn),> 100,–
COc1ccc(/C=C2\CCCC3=C2NC(C)=NC3c2ccc(OC)c(OC)c2)cc1OC (stereo not drawn),> 100,> 100
CC1CC2(CC[C@@H]1O)OCCO2 (stereo partly drawn),> 100,–
O=[N+]([O-])c1ccc(CS(=O)Cc2ccccc2)cc1 (stereo not drawn),> 100,–
CCC1=CC2CC(C(=O)OC)C1(N(C)C)C2=O (stereo not drawn),> 100,–
Cn1cc(-c2ccc(CNc3cc(-c4cnc5cc(OCCCN6CCCC6)ccn45)ncn3)cc2)cn1,4.78,2.03
c1ccc2c(c1)CCN2CCc1c[nH]c2ccccc12,> 10,–
O=C(Cc1ccccc1)N/N=C(\C1=Nc2ccc([N+](=O)[O-])cc2NC1O)C(O)c1ccc([N+](=O)[O-])cc1 (stereo not drawn),> 100,–
COc1ccc2c(C(=O)O)cc3cc(OC)c(OC)cc3c2c1,> 100,–
Cc1cc(C)c(C)c(-n2[nH]c(=O)n(C)c2=O)c1C,> 100,–
CN(C)C(=O)C1CCC(=C2C(=O)OC(C)(C)OC2=O)N1C (stereo not drawn),> 100,–
CCOC(=O)N1C2C=C(C)C(C3C(C)C(=O)N31)N(C(=O)c1ccccc1)O2 (stereo not drawn),> 100,–
O=c1[nH]cc(OCC(F)(F)F)c(=O)[nH]1,> 100,–
COc1ccc(NCC(=O)Nn2c(C)nc3ccc(S(=O)(=O)Nc4ccc(OC)cc4)cc3c2=O)cc1,> 100,–
Cc1cc(N2CCCC2)nc(N(CCCNc2ccnc3cc(Cl)ccc23)Cc2ccc3c(c2)OCO3)n1,12,1.67
O=C(O)C/C(=C\c1ccccc1)C(=O)O,> 100,–

Structure (SMILES),TGI [µM],GI50 [µM]
Cc1c2cnccc2nc2[nH]c3ccncc3c12,41.6,–
CCc1c[nH]c2ncnc(N3CC[C@@](N)(CNC(=O)c4ccc(F)cc4F)C3)c12,> 100,48.6
O=C1C(N=Nc2ccc(-c3nc4ccccc4o3)cc2)NC(=S)N1c1ccccc1 (stereo not drawn),> 100,–
CCc1c2c(nc3cccc(N)c13)-c1cc3c(c(=O)n1C2)COC(=O)[C@]3(O)CC,> 100,0.0354
CN(C)c1ccc(N=Nc2c([O-])ccc3ccccc23)cc1.[C-]#[O+].[C-]#[O+].[Ir],> 100,> 100
NCCCc1ccc2oc3ccccc3c2c1,23.9,–
CCOC(=O)CN1CCSC1=NC#N,> 100,–
Clc1ncnc2c1nc(C#Cc1ccccc1)n2Cc1ccccc1,31.8,–
CCOC(=O)N1CCN(S(=O)(=O)c2oc(-c3ccc(Cl)cc3)nc2C#N)CC1,> 100,> 100
NCc1ccc(-n2c(-c3nonc3N)nc3cnccc32)cc1,> 25,> 14.8
COc1ccc(COCC(Cn2ccnc2)OCc2ccc(C(=O)O)cc2)cc1 (stereo not drawn),> 100,–
CC(CCCOC(c1ccccc1)(c1ccccc1)c1ccccc1)OC(=O)Nc1cc([N+](=O)[O-])cc([N+](=O)[O-])c1 (stereo not drawn),> 100,–
Cc1ccc(-n2cnc3c(N/N=C4\SCC(=O)N4c4ccccc4)ncnc32)cc1,25.4,–
CC(C)CNC(=O)Cn1c2c(c3ccccc31)CCCC2,> 100,–
Cn1c(COC(=O)NC2CCCCC2)c(COC(=O)NC2CCCCC2)c2ccc3cc(Cl)c(Cl)cc3c21,> 100,–
CC1=CC(=O)C(C(C)=Nc2ccccc2Cl)C(=O)O1 (stereo not drawn),> 100,> 100
Cc1ccc2c(c1)ncn2-c1ncnc2c1CC(C)c1ccccc1N2C (stereo not drawn),17.1,0.454
COc1ccc2c(c1)nc(N)c1c3cccnc3cn21,57,1.53
O=C(CC(C(=O)c1cccs1)c1ccsc1)c1ccsc1 (stereo not drawn),> 100,–
O=c1cccccc1NCCCCCCCCCNc1cccccc1=O,81.4,–
COc1ccccc1-c1c(C)nn2c(NCc3ccccn3)cc(C)nc12,> 50,> 38.2
COc1cc2c(c(OC)c1OC)C(=O)[C@H]1OC(=O)N[C@@H]21,> 100,–
CC1CC[C@@]2(OC1)OC1C[C@H]3[C@@H]4CC[C@H]5CC(OC6OC(CO)C(OC7OC(CO)C(O)C(O)C7O)C(O)C6O)CCC5(C)[C@H]4CCC3(C)C1[C@@H]2C (stereo partly drawn),16.8,–
CCOC(=O)/C(C#N)=C1\N[C@H](C(=O)OCC)CO1,> 100,–
CC(=O)Nc1ccc(N2C(=O)/C(=C\c3cccc(Oc4ccccc4)c3)SC2c2ccccc2)cc1 (stereo not drawn),> 100,–
CCOC(=O)COc1ccc(/C=C/C(=O)c2ccc(OC)cc2)cc1,> 100,–

Structure (SMILES),TGI [µM],GI50 [µM]
CC(C)N1CSC(=S)N(Cc2ccccc2)C1,> 10,–
CN(C)C(=C1c2cc([N+](=O)[O-])ccc2-c2ccc([N+](=O)[O-])cc21)N(C)C,> 100,–
COc1ccc(/C=C(\NC(=O)c2ccccc2)C(=O)NN(C)c2ccnc3cc(Cl)ccc23)cc1OC,> 100,–
O=c1oc2ccc(Cl)cc2c(=O)n1-c1ccc(I)cc1F,> 29,0.236
Nc1nc(OCc2ccccc2)nc2[nH]ncc12,37.6,13.6
C=CCc1ccc(O)c(-c2cc(C3Oc4c(-c5cc(CC=C)ccc5O)cc(O)cc4[C@@H]3CO)ccc2O)c1 (stereo partly drawn),> 100,–
N/N=C(\Cc1ccccc1)NN=C(N)N,> 100,–
Clc1ccc2nc(Oc3ccccc3)cnc2c1,> 100,> 100
CN(C)c1ccc(/C=C/c2cc[n+](C)c3ccccc23)cc1,19.6,–
CCOC(=O)C(NC(=O)NC(C(=O)OCC)C(=O)OCC)C(=O)OCC,> 100,–
CC1CC/C(=C\c2ccc(N(C)C)cc2)C(=O)/C1=C/c1ccc(N(C)C)cc1 (stereo not drawn),> 100,–
O=Cc1cc2c(o1)C(=O)c1ccccc1C2=O,2.79,–
O=C1CCC[C@H]2O[C@@H](COCc3ccccc3)C[C@@H]12,> 100,–
Cn1cc(-c2ccc3c(c2)CCN3C(=O)Cc2cccc(C(F)(F)F)c2)c2c(N)ncnc21,49.2,2.98
Cc1c2ccncc2c(C)c2c1[nH]c1ccc(OC(C)(C)C)cc12,7.42,–
COc1cc(Oc2c(O)c(C)c(OC)c(C(C)=O)c2O)c(C(C)=O)c(O)c1C,> 100,–
CCCCCCCCCCCCC(=O)[O-].CCCCCCCCCCCCC(=O)[O-].CCCCCCCCCCCCC(=O)[O-].CCCCCCCCCCCCC(=O)[O-].[Mo+2].[Mo+2],67.6,19.5
COc1cc2cc(Oc3ccc(NC(=O)c4ccc(Cl)c(C(F)(F)F)c4)cc3)c(C)nc2cc1OC,> 100,55.7
CO[C@@H](c1ccccc1)[C@H](O)[C@](O)(c1ccccc1)P(=O)(OC)OC,> 100,–
CN(C)CCNC(=O)c1ccc(Cl)c2c(Nc3ccc(S(N)(=O)=O)cc3)c3ccccc3nc12,11.6,–
O=C1C=CC(=O)c2c(O)c(N[C@@H](Cc3ccccc3)C(=O)OCc3ccccc3)c(Cl)c(O)c21,> 10,–
CCO[C@@H]1C2C=CC(C2)[C@H]1[N+](=O)[O-] (stereo partly drawn),> 100,–
Cc1cc(NS(=O)(=O)c2ccc(Nc3c4ccccc4nc4ccc(C(=O)Nc5ccc(S(=O)(=O)N=C(N)N)cc5)cc34)cc2)no1,> 100,–
C=CC12CN(C)C3C4COC(CC41)C1(C(=O)Nc4ccccc41)C32 (stereo not drawn),> 200,–
FC(F)(F)c1ccc2nc(Nc3ccc(Cl)c(Cl)c3)c(-c3ccccc3)nc2c1,> 100,–
COc1cnc2c(c1)C(=O)c1c-2n(CCCN2CCCC2)c(=O)c2cc(Cl)ccc12,9.75,1.68

Structure (SMILES),TGI [µM],GI50 [µM]
FC(F)(F)C12C34C=CC5(CCC6(C=CC1(CC3)O6)C52C(F)(F)F)O4 (stereo not drawn),> 100,–
O=C(NCCNCCO)N/N=C/c1ccc([N+](=O)[O-])cc1,> 100,–
COc1ccc(-c2ccc(/C=N/n3c(COc4ccc(Cl)cc4)n[nH]c3=S)o2)c([N+](=O)[O-])c1,44.1,20
O=C1CCc2cc3c(cc21)CC1(Cc2ccccc2C1)C3,> 94.1,–
CC1=NN(C(=O)c2ccc(Cl)cc2)C(=O)/C1=C/c1cccc([N+](=O)[O-])c1,> 100,–
COc1ccc(CSc2nc3ccccc3nc2-c2cccs2)cc1,> 100,–
CCCCCCCC(=O)N/N=C/c1ccc(Sc2nccn2C)c([N+](=O)[O-])c1,79.9,–
CC(C)OC(=O)c1ccc2[nH]c(O)c(C(=Nc3ccc(N(C)C(=O)CN4CCN(C)CC4)cc3)c3ccccc3)c2c1,2.76,1.2
CCOC(=O)c1cnn(-c2ccnc3c(C(F)(F)F)cccc23)c1N,> 100,> 100
COC(=O)C(Cc1nc2ccc(Cl)cc2[nH]c1=O)C(=O)C(=O)Nc1ccccc1[N+](=O)[O-] (stereo not drawn),> 100,–
O=C1C(=O)N(C2CCCCC2)C(=S)N1C1CCCCC1,> 100,–
COc1cc(/C=C/C2=NN(c3cccc(S(=O)(=O)O)c3)C3(C2)C(Cl)C(=O)N3c2nc3ccccc3s2)ccc1O (stereo not drawn),> 100,–
O=C1c2ccccc2C(=O)C1C(c1ccc([N+](=O)[O-])cc1)C1C(=O)c2ccccc2C1=O,> 100,–
COC1CC(n2cnc3c(N)ncnc32)OC1CO (stereo not drawn),> 100,–
COc1ccc2cc3n(c2c1)CCc1cc(OC)c(OC)cc1-3,> 100,–
N=c1oc2ccc(Cl)cc2cc1C(=O)Nc1ccccc1,> 100,–
O=[N+]([O-])/C(C(Cl)=C(Cl)Cl)=C1/OCCS1,> 100,–
CCN1C(=O)N(CC)C2C1NN=c1s/c(=C3\C(=O)N(C)c4ccccc43)c(=O)n12 (stereo not drawn),> 100,14.8
CC(=O)OC1C2(CC3N4C(=O)C5(CO)SSC4(CC31O)C(=O)N5C)OC(C)C(C)(C)C2=O (stereo not drawn),0.53,0.184
Cc1cccc(C)c1NC(=O)CCCC(=O)C1CCC/C1=N\NC(=O)C(=O)NN (stereo not drawn),> 100,–
CN(C)Cc1cc(N=Nc2ccccc2Cl)cc(CN(C)C)c1O,> 100,–
Cc1c(C)c2ccc(OC/C=C3\CCC(=O)O3)cc2oc1=O,27.4,13.4
COc1ccc2c(c1)C(=O)c1c-2n(CCCN2CCOCC2)c(=O)c2ccccc12,> 59.5,4.21
